Consider five molecules from PMC6286156 (Cell Calcium, 2018).

For assay [1], the system named is specific ^32P-NAADP binding in sea urchin egg homogenates. In words: 32P-NAADP radioligand binding in sea urchin egg homogenate. Details: species or system Strongylocentrotus purpuratus. As to conditions: drug 30 μM, specific 32P-NAADP binding relative to vehicle.
In assay [2] the test system is NAADP-evoked Ca^2+ release. Type of assay: biochemical, Strongylocentrotus purpuratus.
In assay [3] the test system is NAADP-evoked Ca^2+ release. Description: Primary screen of NAADP-evoked Ca2+ release in sea urchin egg homogenate. In kind it is biochemical, Strongylocentrotus purpuratus. Particulars: compound 25 μM, 6 min preincubation, NAADP 167 nM.

Each structure is given as a SMILES string. Where a name gives a salt, the structure may show the parent alone.

Turning to `CN1CCC[C@@H]1CCO[C@](C)(c1ccccc1)c1ccc(Cl)cc1` [Clemastine fumarate, clemastine fumarate], in assay [1], the “2° Screen (sea urchin) NAADP binding (% inhibition)” value (shortened to “2° Screen … (% inhibition)”) worked out at 8.2 ± 3.6%. Further, in assay [2], the “2° Screen (sea urchin) Ca^2+ release log(IC50)” value was −4.78 ± 0.09. In assay [3], the “1° Screen (sea urchin) Ca^2+ release (% NAADP): peak NAADP-evoked Ca2+ release as % of control NAADP response” value stood at 13.7 ± 15%.
Regarding `CSc1ccc2c(c1)N(CCC1CCCCN1C)c1ccccc1S2` (centres unmarked) [Thioridazine hydrochloride, thioridazine hydrochloride], in assay [1], the “2° Screen … (% inhibition)” value is given as −3.3 ± 1.5%. Besides, the “2° Screen (sea urchin) Ca^2+ release log(IC50)” value in assay [2] was −4.77 ± 0.02. The “1° Screen (sea urchin) Ca^2+ release (% NAADP): peak NAADP-evoked Ca2+ release as % of control NAADP response” value in assay [3] came to 15.3 ± 17%.
Taken in the same sequence, the figures for `CCN(CC)CC#CCOC(=O)C(O)(c1ccccc1)C1CCCCC1` (centres unmarked) [Oxybutynin Chloride, oxybutynin chloride] were −6.0 ± 5.2%, −5.07 ± 0.05 and 19.0 ± 10%.
Taken in the same sequence, the figures for `CN1CCN(CCCN2c3ccccc3Sc3ccc(Cl)cc32)CC1` [Prochlorperazine dimaleate, prochlorperazine dimaleate salt] were 0.0 ± 3.4%, −4.62 ± 0.27 and 15.0 ± 12%.
Regarding `OCCN1CCN(CCCN2c3ccccc3Sc3ccc(C(F)(F)F)cc32)CC1` [Fluphenazine dihydrochloride, fluphenazine dihydrochloride], the “2° Screen … (% inhibition)” value in assay [1] came out at 3.2 ± 1.5%. In assay [2], the “2° Screen (sea urchin) Ca^2+ release log(IC50)” value is on record as −4.97 ± 0.03.
